Source: PMC4336329 (PLoS ONE, 2015)
Among all 310,000 compounds or so, about 2,200 (0.71%) showed an effect of 50% or more. Effects have a minus sign here. The list shows a part of the results.

What follows are molecules tested against human ether-à-go-go-related gene (hERG) potassium channel (human, UniProt Q12809) (assay: primary screen, population patch clamp on CHO cells stably expressing hERG).
Chain of human ether-à-go-go-related gene (hERG) potassium channel (Q12809 whole entry, looked up): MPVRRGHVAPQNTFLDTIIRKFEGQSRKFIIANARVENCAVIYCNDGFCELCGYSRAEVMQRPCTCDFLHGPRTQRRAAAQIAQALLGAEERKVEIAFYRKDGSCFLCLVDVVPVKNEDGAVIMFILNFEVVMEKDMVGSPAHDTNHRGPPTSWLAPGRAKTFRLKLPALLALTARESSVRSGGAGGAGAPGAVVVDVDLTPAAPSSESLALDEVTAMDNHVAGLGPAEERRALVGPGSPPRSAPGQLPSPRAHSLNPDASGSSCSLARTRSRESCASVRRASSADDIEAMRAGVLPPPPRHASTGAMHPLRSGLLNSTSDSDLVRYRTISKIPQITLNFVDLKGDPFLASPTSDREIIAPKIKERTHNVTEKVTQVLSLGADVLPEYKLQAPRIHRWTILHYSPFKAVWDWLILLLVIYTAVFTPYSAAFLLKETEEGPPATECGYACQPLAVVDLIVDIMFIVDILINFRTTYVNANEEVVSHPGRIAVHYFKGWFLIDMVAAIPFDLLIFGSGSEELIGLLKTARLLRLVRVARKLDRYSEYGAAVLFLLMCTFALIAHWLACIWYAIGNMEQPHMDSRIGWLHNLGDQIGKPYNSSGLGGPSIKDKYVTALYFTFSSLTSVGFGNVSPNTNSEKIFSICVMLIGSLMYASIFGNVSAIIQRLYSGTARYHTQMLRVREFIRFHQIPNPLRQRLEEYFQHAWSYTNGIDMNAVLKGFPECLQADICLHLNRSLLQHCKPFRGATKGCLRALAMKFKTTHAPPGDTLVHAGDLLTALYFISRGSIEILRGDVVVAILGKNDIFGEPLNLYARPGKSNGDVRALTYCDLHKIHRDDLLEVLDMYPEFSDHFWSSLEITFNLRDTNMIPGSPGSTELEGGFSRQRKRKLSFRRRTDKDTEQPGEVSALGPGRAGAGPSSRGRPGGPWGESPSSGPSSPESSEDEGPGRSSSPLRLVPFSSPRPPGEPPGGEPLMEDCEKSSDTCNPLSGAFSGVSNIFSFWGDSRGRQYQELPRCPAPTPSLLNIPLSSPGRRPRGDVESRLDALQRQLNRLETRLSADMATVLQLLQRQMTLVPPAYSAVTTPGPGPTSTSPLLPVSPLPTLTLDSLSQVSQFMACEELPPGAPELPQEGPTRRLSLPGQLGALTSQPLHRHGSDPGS

Compared with CC1(C)CC(=O)C2=C(C1)c1c(ccc3ccccc13)NC2c1ccc(Br)o1 (stereo not drawn), COc1ccc(NC(=O)NNC(=O)c2ccc3ccccc3c2O)c(OC)c1 is lower in “hERG current change (%, negative = inhibition) at 1uM” value: 20.3% for the first, 0.0914% for the second.

Going from C#CCn1c2ccccc2c2nc3ccccc3nc21 to O=c1c2ccccc2nnn1COc1cccc(Cl)c1, the “hERG current change (%, negative = inhibition) at 1uM” value falls from 14.4% to 8.69%.

Compared with O=C(c1cc(C(=O)NCCc2ccccc2)c(=O)n(CCc2ccccc2)c1)c1cc(Cl)ccc1O, O=C(CN1C(=O)NC(Cc2c[nH]c3ccccc23)C1=O)NCCc1ccc(F)cc1 (stereo not drawn) is higher in “hERG current change (%, negative = inhibition) at 1uM” value: 6.68% for the first, 11.7% for the second.

Compared with COc1ccc(C(=O)CSc2nc(C)cc(C)n2)cc1[N+](=O)[O-], COC(=O)CCN(C(=O)c1ccc(Cl)c([N+](=O)[O-])c1)c1ccccn1 is lower in “hERG current change (%, negative = inhibition) at 1uM” value: 10.7% for the first, 3.44% for the second.

Going from CCOC(=O)C(=CNc1cc(C)nn1C(C)(C)C)C(=O)OCC to CCOC(=O)[C@@H]1C(c2c(OC)cc(OC)cc2OC)=NO[C@@H]1C(=O)OCC, the “hERG current change (%, negative = inhibition) at 1uM” value rises from 0.0263% to 2.23%.

Compared with COc1ccccc1C1/C(=C(/O)c2ccc(C)cc2)C(=O)C(=O)N1Cc1ccco1 (stereo not drawn), COc1cccc(C(O)c2nccn2Cc2ccccc2)c1OC (stereo not drawn) is higher in “hERG current change (%, negative = inhibition) at 1uM” value: 9.23% for the first, 10.2% for the second.

Compared with Cc1ccc(N2C(=O)CC(Nc3ccc(Cl)c(S(=O)(=O)N(C)C)c3)C2=O)c(C)c1 (stereo not drawn), CC(=O)Nc1ccc(NC(=O)C2CC(=O)N(c3cccc(C)c3C)C2)cc1 (stereo not drawn) is higher in “hERG current change (%, negative = inhibition) at 1uM” value: 6.91% for the first, 8.29% for the second.

Going from CN(C)c1cccc(N(C)C)c1CNC(=O)NC(=O)c1c(F)cccc1F to CC(NC(=O)c1c(F)cccc1Cl)c1ccc(-n2ccnc2)cc1 (stereo not drawn), the “hERG current change (%, negative = inhibition) at 1uM” value falls from 13% to 10.5%.

First: Cc1cc(S(=O)(=O)Nc2ccccc2C(=O)O)ccc1Cl
Second: O=S(=O)(Nc1ccc2c(c1)nc1n2CCOC1)c1ccccc1
The “hERG current change (%, negative = inhibition) at 1uM” value of the first is higher: 22.7% for the first, 8.78% for the second.

Going from CCOC(=O)c1sc(NC(=O)C(C)Sc2nnc(N)s2)nc1C (stereo not drawn) to CCOC(=O)c1c(C)nc(-c2ccccc2)nc1NC(=O)C(C)C, the “hERG current change (%, negative = inhibition) at 1uM” value rises from 9.77% to 10.6%.

Compared with Clc1cccc(-c2csc(Nc3cccnc3)n2)c1, S=C(Nc1ccc(Oc2ccccc2)cc1)Nc1cccnc1 is lower in “hERG current change (%, negative = inhibition) at 1uM” value: 10.7% for the first, 6.92% for the second.

Compared with O=C(c1ccccc1Br)N1CCN(Cc2ccc3c(c2)OCO3)CC1, Cl.O=C(NN1CCN(Cc2ccccc2Cl)CC1)c1ccc(Cl)cc1 is lower in “hERG current change (%, negative = inhibition) at 1uM” value: 14% for the first, 8.07% for the second.

First: CC(C)(C)c1cc(N)n2nc(C(C)(C)C)cc2n1
Second: COC(=O)c1cc(NC(=O)CSc2nncn2C)cc(C(=O)OC)c1
The “hERG current change (%, negative = inhibition) at 1uM” value of the first is higher: 7.38% for the first, -7.86% for the second.

First: COc1ccc(N(CC(=O)Nc2cc(Cl)ccc2OC)S(=O)(=O)c2c(C)[nH]c(=O)[nH]c2=O)cc1
Second: COc1ccc(CNC(=O)c2cc(=O)c3cc(C)ccc3o2)cc1
The “hERG current change (%, negative = inhibition) at 1uM” value of the first is higher: 15.7% for the first, 1.33% for the second.

Going from CCCCC(=O)Nc1cccc(-c2nnc(-c3ccccc3)o2)c1 to Nc1cc[n+](CC(=O)Nc2ccccc2)cc1.[Cl-], the “hERG current change (%, negative = inhibition) at 1uM” value rises from 4.6% to 17.1%.

Going from COc1ccc(C(C(=O)Nc2ccc(F)cc2)N(C(=O)Cn2nnc3ccccc32)C2CC2)cc1 (stereo not drawn) to COc1ccc(NC(=S)N2CCC(NC(=O)c3ccc(F)cc3)CC2)cc1, the “hERG current change (%, negative = inhibition) at 1uM” value falls from 4.31% to 3.93%.

Compared with O=S1(=O)CCN2N=C(C34CC5CC(CC(C5)C3)C4)SC2=N1, O=C(NC1CCS(=O)(=O)C1)c1cccs1 (stereo not drawn) is higher in “hERG current change (%, negative = inhibition) at 1uM” value: 13.1% for the first, 24.2% for the second.

First: Cc1ccc(NC(=O)Cn2cc(C(F)(F)F)cc(Cl)c2=O)cc1Cl
Second: Cc1cc(C)cc(NC(=O)CSc2nc3[nH]ncc3c(=O)[nH]2)c1
The “hERG current change (%, negative = inhibition) at 1uM” value of the first is higher: 14.3% for the first, 7.45% for the second.

First: COc1ccc(/C=C2\SC(=S)N(NC(=O)c3ccncc3)C2=O)cc1OC
Second: COc1ccc(/C=C2/C(=O)OCc3cc(OC)c(OC)cc32)cc1
The “hERG current change (%, negative = inhibition) at 1uM” value of the first is lower: 3.91% for the first, 16.1% for the second.

Compared with Cc1ccc(S(=O)(=O)NCC(=O)N(CC(=O)NCC2CCCO2)c2ccc(Cl)cc2)cc1 (stereo not drawn), CC(C)CNS(=O)(=O)c1ccc(CCC(=O)Nc2ccc3c(c2)OCCO3)cc1 is higher in “hERG current change (%, negative = inhibition) at 1uM” value: 1.1% for the first, 16.6% for the second.

Compared with CCOP(=S)(OCC)Oc1cc(C)oc(=O)c1Cl, CCOC(=O)C1C(=O)OC(C)(C)C1C(CC)C(=O)c1c(C)cc(C)cc1C (stereo not drawn) is lower in “hERG current change (%, negative = inhibition) at 1uM” value: 17.9% for the first, 13% for the second.

Going from C=CCNc1nc(N)c(C(=O)c2ccc3c(c2)OCO3)s1 to CSc1nc2ccc(NC(=O)C3CC(=O)N(Cc4ccco4)C3)cc2s1 (stereo not drawn), the “hERG current change (%, negative = inhibition) at 1uM” value falls from -1.23% to -17.2%.

Compared with O=C(O)CN1C(=O)C(=O)N(Cc2cccc(F)c2)C1=O, O=C(O)c1cccc(N2C(=O)C3CC=C(Cl)CC3C2=O)c1 (stereo not drawn) is lower in “hERG current change (%, negative = inhibition) at 1uM” value: 14.5% for the first, 8.2% for the second.

Compared with COc1ccc(NC(=O)N2CCC(c3ccccc3)C2)c(OC)c1 (stereo not drawn), COc1ccc(C(C#N)N2N=C(C)CC2c2ccccc2)cc1OC (stereo not drawn) is lower in “hERG current change (%, negative = inhibition) at 1uM” value: 14.9% for the first, 5.43% for the second.

First: Cc1nc(=O)c(-c2ccccc2)c(C)n1CCO
Second: Cc1cc(C)c2nc(-c3ccccn3)cc(C(=O)n3cccn3)c2c1
The “hERG current change (%, negative = inhibition) at 1uM” value of the first is higher: 16.7% for the first, 14.7% for the second.

Compared with NS(=O)(=O)c1ccc(NC(=O)CN2CCCCC2)cc1, COc1ccc(S(=O)(=O)N2CCC(C(=O)Nc3nccs3)CC2)cc1 is higher in “hERG current change (%, negative = inhibition) at 1uM” value: 5.28% for the first, 10.1% for the second.

First: COc1ccc(CSc2nnc(-c3ccncc3)n2C)cc1F
Second: C=CCc1ccc(OCCOc2ccc(/C=N/n3cnnc3)cc2OCC)c(OC)c1
The “hERG current change (%, negative = inhibition) at 1uM” value of the first is higher: 20% for the first, 8.83% for the second.

First: O=C(O)CCc1ccc(-c2cccs2)n1NC(=O)c1ccc(O)cc1
Second: O=C(NNC(=S)Nc1ccccc1)c1ccc(O)cc1
The “hERG current change (%, negative = inhibition) at 1uM” value of the first is lower: 8.83% for the first, 15.2% for the second.

Compared with O=S(=O)(NC1CC1)c1ccc(Cl)cc1F, Cc1ccc(C)c(OCC(=O)NNC(=O)C2CC2)c1 is lower in “hERG current change (%, negative = inhibition) at 1uM” value: 13.1% for the first, 3.93% for the second.

First: CC1C(=O)NN=C1C(=O)N/N=C/c1ccco1 (stereo not drawn)
Second: CCCCCC(=O)N/N=C/c1ccco1
The “hERG current change (%, negative = inhibition) at 1uM” value of the first is higher: 15.5% for the first, 5.03% for the second.

Going from C=CCN1C(=O)N(/C=C/C)c2cccc3cccc1c23 to COc1cccc(NCc2ccc([N+](=O)[O-])s2)c1, the “hERG current change (%, negative = inhibition) at 1uM” value falls from 11.6% to -0.835%.

Going from O=c1c(-c2c(O)cc(O)c3c(=O)cc(-c4ccc(O)cc4)oc23)c(-c2ccc(O)cc2)oc2cc(O)cc(O)c12 to Clc1ccc(-c2nnc(Sc3nc4ccccc4o3)c3ccccc23)cc1, the “hERG current change (%, negative = inhibition) at 1uM” value falls from 7.32% to 5.36%.

Compared with CCN(CC)C(=O)Oc1nnc(SC(C)C)n1-c1ccc(Cl)c(Cl)c1, CC(C(=O)NCCSCc1cccc(Cl)c1)N(c1ccccc1)S(C)(=O)=O (stereo not drawn) is lower in “hERG current change (%, negative = inhibition) at 1uM” value: 11.3% for the first, 3.77% for the second.

Going from CC1(C(=O)N2CCN(Cc3ccccc3Cl)CC2)CC1(Cl)Cl (stereo not drawn) to COc1ccc(N2CCN(C(=O)CNC(=O)c3ccc(Br)o3)CC2)cc1, the “hERG current change (%, negative = inhibition) at 1uM” value falls from 9.86% to 9.23%.

Going from CN(C)c1ccnc(Oc2ccc(F)cc2)c1C#N to Cc1cc([N+](=O)[O-])nn1CCCC(=O)Nc1cc(Oc2ccc(F)cc2)cc([N+](=O)[O-])c1, the “hERG current change (%, negative = inhibition) at 1uM” value falls from 7.63% to 4.95%.

Going from Cn1c(=O)oc2cc(S(=O)(=O)N3CCCC(C(=O)Nc4nccs4)C3)ccc21 (stereo not drawn) to CS(=O)(=O)N1CCCC(C(=O)NCCCN2CCOCC2)C1 (stereo not drawn), the “hERG current change (%, negative = inhibition) at 1uM” value rises from -8.58% to -5.08%.

First: O=C1CNC(=S)N1CCCn1ccnc1
Second: CCN1CCN(CCCNC(=O)c2cc3sccc3n2CC)CC1
The “hERG current change (%, negative = inhibition) at 1uM” value of the first is higher: 9.37% for the first, -3.68% for the second.

Compared with O=C(CSc1c2c(nc3ccc(Cl)cc13)CCCC2)NCCCN1CCOCC1, CCc1nc(SCC(=O)Nc2nc3c(s2)CCCC3)c2ccccc2n1 is lower in “hERG current change (%, negative = inhibition) at 1uM” value: 2.77% for the first, -5.26% for the second.

Compared with C=CCc1c(NCCO)nc(C)[nH]c1=O, O=c1[nH]cnc2sc3c(c12)CCC3 is lower in “hERG current change (%, negative = inhibition) at 1uM” value: 12.9% for the first, -3.49% for the second.

First: COc1ccc(CCN2C(=O)NC(NC(=O)CCc3ccccc3)(C(F)(F)F)C2=O)cc1OC (stereo not drawn)
Second: COc1ccc(CCNC(=O)C2CCC(CNS(=O)(=O)c3ccccc3)CC2)cc1OC (stereo not drawn)
The “hERG current change (%, negative = inhibition) at 1uM” value of the first is higher: 4.91% for the first, 1.8% for the second.

Going from CC(O)[C@H]1CN=C(N)N1CC1CCCCC1 (stereo partly drawn) to CCOC(=O)c1cc(C)sc1NC(=O)CN1CCN(C(=O)C2CCCO2)CC1 (stereo not drawn), the “hERG current change (%, negative = inhibition) at 1uM” value falls from 19.9% to 0.585%.

First: CC1CC(C)(C)CC2(C1)NC(=O)N(CC(=O)N(Cc1ccccc1)c1ccccc1)C2=O (stereo not drawn)
Second: C1=C[C@@H]2CCN(Cc3ccccc3)Cc3cccc(c32)C1
The “hERG current change (%, negative = inhibition) at 1uM” value of the first is higher: 12.5% for the first, -6.63% for the second.

First: CC1CC(C)CN(CC(O)COCc2ccccc2)C1.Cl (stereo not drawn)
Second: COc1cc2c(cc1OC)CN(CC(=O)Nc1ccccc1C#N)CC2
The “hERG current change (%, negative = inhibition) at 1uM” value of the first is higher: 8.75% for the first, -1.89% for the second.

Compared with O=C(/C=C/c1c[nH]c2ccccc12)c1ccccc1, CCCCOc1ccc(C(=O)N/C(=C/C=C/c2ccccc2)C(=O)NC)cc1 is lower in “hERG current change (%, negative = inhibition) at 1uM” value: 14.3% for the first, -24.7% for the second.

Going from CCOC(=O)N1CCC(N2Cc3cccc(C(=O)Nc4ccc(S(=O)(=O)N(CC)CC)cc4)c3C2=O)CC1 to COc1ccccc1C1=NC(c2ccccc2)CN1c1ccccc1 (stereo not drawn), the “hERG current change (%, negative = inhibition) at 1uM” value falls from 16.3% to 6.78%.
